Measurements from PubChem BioAssay AID1347073 (National Center for Advancing Translational Sciences (NCATS), 2019).
The campaign covered roughly 45,000 compounds. About 200 (0.44%) were called active. Inconclusive results (about 7%) are left out. Calls follow the shape of the dose curve; as a rule, active = well fitted activation curve with a large enough effect; inconclusive = small, poorly fitted or top-dose-only effect; inactive = no such curve, though single readings can be large or run the other way. The list shows a part of the results.

assay: qHTS of TDP-43 Inhibitors: NCGC Sytravon Library Screen; conditions: yeast TDP-43 toxicity rescue, BacTiter-Glo growth, 24 h; series mostly up to 46.1 µM; growth rescue (activation): at the top concentration; also: 0% is about no effect; nearly all actives have a fitted effect of over 55% in size
Outline: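 TDP-43-expressing yeast, pregrown in raffinose, seeded at OD600 0.02 in galactose medium with compound for 24 hr at 30 deg C. Growth read by BacTiter-Glo luminescence, so rescue of toxicity appears as activation.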

SMILES	growth rescue (activation)
Cc1cc(N2C(=O)C3C4C=CC(C4)C3C2=O)ccc1NC(=O)c1cccs1 (stereo not drawn)	inactive: -24.4%
CC(=O)Nc1ccc(S(=O)(=O)NCCOc2ccc(Cl)cc2C)cc1	inactive: -12.3%
c1ccc(-c2c[n+]3c(n2-c2ccccc2)SCC3)cc1	inactive: -20.1%
CN(C(=O)c1cc(-c2ccccc2)on1)C1CCCCC1	inactive: 22.1%
O=C(COc1c(F)c(F)cc(F)c1F)NNC(=O)CC1CCS(=O)(=O)C1 (stereo not drawn)	inactive: 17.7%
COCCn1c(Cc2ccccc2)nnc1SCC(=O)Nc1ccccc1	inactive: -5.82%
O=C(O)C1CCCCC1C(=O)NCCc1ccc(F)cc1 (stereo not drawn)	inactive: 7.6%
O=C(Nc1ccccc1)Nc1ncc([N+](=O)[O-])s1	inactive: -6.86%
COc1ccc(S(=O)(=O)NC(C)C(=O)NCC2CCCO2)cc1OC (stereo not drawn)	inactive: -3.51%
CC(=O)/C(=C/N(C)C)C(=O)Nc1ccc(Cl)cc1Cl	inactive: -55.1%
CC(=O)N(NC(N)=O)C(C)CC(=O)C1C(C)C=CCC1(C)C (stereo not drawn)	inactive: 2.26%
O=C(COc1ccccc1Cc1ccccc1)NCCCN1CCOCC1	inactive: 29.4%
CN1c2ccccc2C(O)=C(C(=S)Nc2ccc(F)c(Cl)c2)S1(=O)=O	inactive: -86.3%
Cn1c(=O)c(C(=O)COc2ccc(C#N)cc2)c(N)n(Cc2ccccc2)c1=O	inactive: 17.4%
OC(Cn1cnnc1)c1ccccc1 (stereo not drawn)	inactive: -4.09%
OCC1(Cc2ccc(Cl)cc2)CCN(Cc2ccc(Oc3ncccn3)cc2)CC1	inactive: -6.59%
COC(=O)c1ccc(NC(=O)c2ccc(NS(=O)(=O)c3cccc4cccnc34)cc2)cc1	inactive: -4.04%
CCN(CC)C(=S)Nc1ccc(OC)cc1	inactive: 16.2%
CCOC(=O)C1(C)CCCN(C(=O)c2cccc(Cl)c2)C1 (stereo not drawn)	inactive: 8.57%
O=[N+]([O-])c1ccc(-n2nnnc2CN2CCCCC2)cc1	inactive: 10.4%
S=C(NCCN1CCCCC1)Nc1ccc(Br)cc1	inactive: 1.09%
CC(=O)c1cccc(NC(=O)CC2S/C(=N/N=C3CCCCCC3)NC2=O)c1 (stereo not drawn)	inactive: -7.73%
COc1ccc(C(C)=O)cc1CSc1nnc2c(Cl)cc(Cl)cn12	inactive: 18.9%
CC(C)(C)C(=O)Nc1ccnn1C1CCN(C(=O)c2ccc(Cl)cc2F)CC1	inactive: -28.5%
Cc1cc(C(=O)Nc2cccc3ccccc23)c(C)o1	inactive: 5.93%
CCCN1CCN(CCCNC(=S)Nc2ccc(OC)cc2)CC1	inactive: 7.23%
CC(=O)Nc1cccc(Nc2nc(-c3ccccc3F)nc3ccccc23)c1	inactive: 8.68%

SMILES	growth rescue (activation)
O=C(Nc1cccc(Cl)c1)Nc1c[nH]c(=O)[nH]c1=O	inactive: 8.48%
COC(=O)/N=C/c1c(NCc2ccccc2)nc2c(C)cccn2c1=O	inactive: 22.1%
CCC(C)C(NC(=O)C1CCC(C)CC1)C(=O)NCc1ccco1 (stereo not drawn)	inactive: 1.68%
COc1cccc2cc(C(C)N(CCCN3CCOCC3)C(=S)Nc3ccccc3C)oc12 (stereo not drawn)	inactive: 11.7%
COc1ccc(CNC(=O)CSc2nn3c(=O)c(C(C)(C)C)nnc3s2)cc1OC	inactive: 10.8%
CCC1=[N+](CC(=O)c2ccc(C)cc2)CCn2c(C)ccc21	inactive: 11.6%
O=C(NC(=S)Nc1ccc(CN2CCOCC2)cc1)c1ccc([N+](=O)[O-])cc1Cl	inactive: -5.51%
CCCN1C(=O)C(Cc2nc3ccccc3c(=O)n2CC)c2ccccc21 (stereo not drawn)	inactive: 11%
CC1CN(/C=C/C(=O)C(F)(F)F)CC(C)O1 (stereo not drawn)	inactive: 12.7%
O=C(NCc1ccc(Cl)cc1)c1cccc(NC(=O)c2ccccc2)c1	inactive: 4.04%
O=C(/C=C/Nc1ccc(Oc2ccccc2)cc1)c1ccco1	inactive: -5.42%
CN1CCN(c2nc(N3CCN(CCO)CC3)nc3ccccc23)CC1	inactive: 13.5%
CC(C)CN1C(=O)c2ccc(C(=O)Nc3nccs3)cc2C1=O	inactive: -8.59%
CCN(Cc1cc(=O)n2ccsc2n1)Cc1nc2ccccc2c(=O)[nH]1	inactive: -4.1%
CC(C)S(=O)(=O)C1=NSC2=NC(=O)/C(=C\c3ccc(-c4cccc(C(=O)O)c4)o3)C(=N)N21	inactive: 7.64%
Cn1cccc2[nH]c(=O)nc1-2	inactive: 7.85%
O=C(O)C1CCCN1S(=O)(=O)c1ccc(Br)s1 (stereo not drawn) (tested in a mixture with another compound)	inactive: 7.19%
COc1ccc(NC(=O)c2ccccc2SC)cc1	inactive: 23.1%
O=C(CCN1CCCCO1)N1CCCC(Nc2cccc(F)c2)C1 (stereo not drawn)	inactive: 9.64%
Cc1ccc(NC(=O)O/N=C/c2cccc([N+](=O)[O-])c2)cc1	inactive: 13.5%
CS(=O)(=O)N(CC(=O)N1CCCCC1)Cc1ccc(Cl)cc1	inactive: 5.24%
Cc1c(F)cccc1NS(=O)(=O)c1ccc(N2CCCC2=O)cc1	inactive: 4.05%
COc1ccc(N(CC(=O)NCc2ccc(F)cc2)C(=O)CCC(=O)Nc2nccs2)cc1	inactive: -3.2%
Cc1cc(=O)[nH]c(N2CCN(c3ccc(Cl)cc3)CC2)n1	inactive: -5.37%
Cc1ccc(-n2nnnc2SCC(=O)Nc2cc(C)on2)c(C)c1	inactive: 5.19%
Cc1ccc(CNC(=O)CN(C(=O)C2(C)CC(=O)N=C3C=CC=CN32)c2ccccc2F)cc1 (stereo not drawn)	inactive: -24.3%
